In article PMC11784026, “Phase 1 study of the safety, tolerability, and pharmacokinetics of a synthetic macrocyclic peptide antibiotic (BRII-693) in healthy adult participants” (Antimicrobial Agents and Chemotherapy, 2024):
Where a SMILES comes first, the peptide text is derived from it. Bridges are numbered along the chain shown (N, C = ends). [ ]: non-standard residue; d: D form. The star is where a group is joined. X1 = O=C(c1ccc(Cl)cc1Cl)*; Dab = NCC[C@H](N)C(=O)O; Abu = CC[C@H](N)C(=O)O; Dap = NC[C@H](N)C(=O)O

Conditions: in vivo; cohort 12, 150 mg q6h × 14 days, Chinese (4 of 10); COVID-19, upper respiratory tract infection, presyncope

Question: Which “Participants who discontinued the study due to AEs” value does the source give for `CC[C@@H]1NC(=O)[C@@H](CC(C)C)NC(=O)[C@H](CCN)NC(=O)[C@@H](NC(=O)[C@H](CN)NC(=O)[C@@H](NC(=O)[C@H](CCN)NC(=O)c2ccc(Cl)cc2Cl)[C@@H](C)O)CCNC(=O)[C@H]([C@@H](C)O)NC(=O)[C@H](CCN)NC(=O)[C@H](CCN)NC1=O` [BRII-693] (X1-[Dab]T[Dap][Dab][Dab][dL][Abu][Dab][Dab]T; lactam 4-C; N-terminus assumed) here?
Answer: The value was 40.0%.
